# About 200 (0.44%) of roughly 45,000 compounds were called active. Inconclusive results (about 7%) are left out. The call rests on the fitted dose curve; in most records, active means well fitted activation curve with a large enough effect; inconclusive means small, poorly fitted or top-dose-only effect; inactive means no such curve, though single readings can be large or run the other way. The list shows a part of the results.
# Test: qHTS of TDP-43 Inhibitors: NCGC Sytravon Library Screen; further: nearly all actives have a fitted effect of over 55% in size; on growth rescue (activation): 0% is about no effect
# Settings: yeast TDP-43 toxicity rescue, BacTiter-Glo growth, 24 h; series mostly up to 46.1 µM; growth rescue (activation): at the top concentration
# In short: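 TDP-43-expressing yeast, pregrown in raffinose, seeded at OD600 0.02 in galactose medium with compound for 24 hr at 30 deg C. Growth read by BacTiter-Glo luminescence, so rescue of toxicity appears as activation.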
# Potency means the concentration at half of the fitted maximal effect.
SMILES,growth rescue (activation),Potency
COC(=O)c1ccc(OC(=O)c2ccc(OC)c(OC)c2)c(OC)c1,inactive: 13.9%,
Cc1ccc(CN(C(=O)c2csnn2)C(C(=O)NC2CCCC2)c2ccccn2)cc1 (stereo unspecified),inactive: 4.16%,
Nc1cc(=O)[nH]c(SCC(=O)c2ccc(O)cc2O)n1,inactive: 9.61%,
CCn1nccc1C(=O)Nc1cccc(C)c1C,inactive: 16.2%,
C/[N+]([O-])=C\C1C(=O)CC(C)(C)CC1=O,inactive: 1.79%,
COC(=O)c1[nH]c2cc(C)ccc2c1NC(=O)CN1CCOCC1,inactive: 7.92%,
COC(=O)c1cc2oc3ccccc3c2n1Cc1cc(C)ccc1C,inactive: 4.72%,
CCCCN(Cc1ccccc1)C(=O)CCN1C(=O)C2C3C=CC(C3)C2C1=O (stereo unspecified),inactive: 2.25%,
Cc1nnsc1C(=O)N/N=C/c1ccc2ccccc2c1O,inactive: 27.2%,
O=c1ccn(-c2cccc(C(F)(F)F)c2)nc1-c1ccn(-c2ccccc2)n1,inactive: -8.62%,
Nc1cc(C(=O)OCC(=O)N2CCOCC2)ccc1Cl,inactive: 2.45%,
O=C(/C=C/c1ccc2ccccc2n1)N1CCN(c2ccccc2)CC1,inactive: 37.7%,
CS(=O)(=O)c1ccccc1C(=O)Nc1cc2c(cc1C(=O)O)OCCCO2,inactive: 14.6%,
COCCNC(=O)CSc1ccccc1C(=O)NCC1CCCCC1,inactive: -3.26%,
O=C1Cc2ccccc2C(c2ccc(Cl)cc2)N1 (stereo unspecified),inactive: 16%,
O=C(Nc1cccc2ncccc12)c1ccc([N+](=O)[O-])o1,inactive: 16.7%,
COc1ccccc1NC(=O)CCN1C(=O)c2ccccc2S1(=O)=O,inactive: 14.6%,
COc1ccc(NC(=O)C(c2ccccc2)N2CCN(c3ccccn3)CC2)cc1Cl (stereo unspecified),inactive: -3.5%,
CC1=NNC(=O)C1CCC(=O)N/N=C/c1ccc(Cl)cc1 (stereo unspecified),inactive: 8.42%,
O=C(Nc1ccc(C(F)(F)F)cc1)N1CCC(N2CCCCC2)CC1,inactive: 0.731%,
C/C(=N\Nc1nc2ccccc2[nH]1)c1ccc2c(c1)OCO2,inactive: 0.344%,
Cc1cc(OCC(=O)N[C@@H](Cc2ccccc2)c2nc3ccccc3[nH]2)ccc1Cl,inactive: 11.5%,
CCN(CC)S(=O)(=O)c1ccc(-c2csc(C)n2)cc1,inactive: 14.4%,

SMILES,growth rescue (activation),Potency
CCC(CC)c1nnc(NC(=O)CS(=O)(=O)c2ccc(C)cc2)s1,inactive: -3.23%,
CCOc1ccc(OCC)c(Nc2nc3ccc(Cl)cc3n3cnnc23)c1,inactive: 15.4%,
COCC(O)CNc1ccccc1 (stereo unspecified),inactive: -27.5%,
O=C(NC1CCCC1)C1CCCN(S(=O)(=O)c2ccc(F)cc2)C1 (stereo unspecified),inactive: 16.3%,
CCOC(=O)C1CCN(C(=O)c2cc3c(=O)n4cccc(C)c4nc3s2)CC1,inactive: 21.7%,
CC1CCCN(C(=O)Cn2nnc(-c3ccc(F)cc3)n2)C1 (stereo unspecified),inactive: -2.77%,
Cn1ccnc1C(O)(c1ccccc1)c1nccn1C,inactive: 9.85%,
CS(=O)(=O)N1CCC(C(=O)N2CCN(c3ccccc3)CC2)CC1,inactive: -4.9%,
CCC(C)[C@H](NC(=O)Nc1ccc2c(c1)OCCO2)C(=O)OC (stereo partly specified),inactive: 2.93%,
CCOC(=O)N(C)c1c(CC)nc2c(OCCC3CCCCC3)cccn12,inactive: 0.826%,
CC1CN(c2ccc([N+](=O)[O-])c(NCCOc3ccccc3)c2)CCN1 (stereo unspecified),inactive: 22.9%,
CCCCC(=O)NNC(=S)NCc1ccccc1,inactive: 1.45%,
COc1ccccc1NC(=O)C1CCCN1C(=O)Nc1ccc(F)cc1 (stereo unspecified),inactive: -2.94%,
COc1ccccc1OC(C)C(=O)Nc1ccc(S(=O)(=O)N2CCN(C)CC2)cc1 (stereo unspecified),inactive: 16.9%,
CC(Sc1nnc2c(n1)[nH]c1ccccc12)C(=O)NC1CCCCC1 (stereo unspecified),inactive: -6.81%,
C[C@H](NC(=O)c1cc2c(cn1)[nH]c1ccccc12)C(=O)O,inactive: -9.48%,
O=C(COc1ccccc1[N+](=O)[O-])N/N=C/c1ccc(O)c([N+](=O)[O-])c1,inactive: -11.7%,
CC(=O)N1CCCN(Cc2nc(C3(c4ccc(C)cc4)CCCC3)no2)CC1,inactive: -0.789%,
O/N=C/c1ccc(OCc2ccccc2)c(Cl)c1,,active: 10 µM
N#Cc1cc2cc3c(cc2nc1SCC(=O)N1CCOCC1)OCCO3,inactive: 1.77%,
CCc1ccccc1NC(=O)CCCN1C(=O)C2CC=CCC2C1=O (stereo unspecified),inactive: 14.6%,
Cc1nc2ccccn2c1/C(O)=C1\C(=O)C(=O)N(CCN(C)C)C1c1ccco1 (stereo unspecified),inactive: 9.3%,
COC(=O)c1cn(Nc2ncc(C(F)(F)F)cc2Cl)c(=O)c2ccccc12,inactive: 26.9%,

SMILES,growth rescue (activation),Potency
Clc1ccccc1-c1nnc(-c2cccs2)o1,inactive: 2.32%,
Cc1ccc(-c2csc3nc(SCC(N)=O)n(Cc4ccccc4)c(=O)c23)cc1,inactive: 0.345%,
CC(=O)Nc1ccc(S(=O)(=O)N2CCSC2)cc1,inactive: 5.65%,
CCOC(=O)NC(NC(=S)Nc1ccccc1OC)C(Cl)(Cl)Cl (stereo unspecified),inactive: 5.96%,
NN/C(=C\[N+](=O)[O-])Nc1ccccc1,inactive: -6.58%,
CC1(C)CNC(=O)c2sc(NC(=O)c3ccccc3)nc2C1,inactive: 26.3%,
COc1cccc(C(=O)N2CCN(C3CCN(Cc4ccccc4)CC3)CC2)c1OC,inactive: -13.2%,
CC(=O)Nc1cccc(-c2ccnc3c2CC(C(=O)NCC2CCOCC2)O3)c1 (stereo unspecified),inactive: -4.57%,
O=C1OCCC1N1C(=O)c2ccccc2S1(=O)=O (stereo unspecified),inactive: -4.69%,
CCC(Sc1nc(C)cc(C)n1)C(=O)Nc1ccc(S(N)(=O)=O)cc1 (stereo unspecified),inactive: 4.01%,
O=C(NCCCn1ccnc1)c1ccc(Br)cc1,inactive: -6.44%,
CCOCCCN(C(=O)c1snc(C(N)=O)c1N)C(C(=O)NC(C)(C)C)c1ccc(Cl)cc1 (stereo unspecified),inactive: -7.06%,
O=C(c1cccnc1)N1N=C(C2CCCCC2)CC1(O)C(F)(F)F (stereo unspecified),inactive: -8.93%,
CCCN(CCC)Cc1cc(=O)oc2cc3c(cc12)CCC3,inactive: 4.33%,
O=C(CC1C(=O)NCCN1Cc1cccc(Oc2ccccc2)c1)NCc1cccnc1 (stereo unspecified),inactive: 10.6%,
OC(c1ccc(Cl)cc1)c1ncc(-c2cccc(F)c2)[nH]1 (stereo unspecified),inactive: 12.9%,
O=C1CCNc2ccc(-c3ccccc3)cc21,inactive: 27.7%,
O=c1[nH]c2ccc(NS(=O)(=O)c3ccc(Cl)cc3)cc2[nH]1,inactive: 3.24%,
CN1CCN(C(=O)/C(=C/c2ccccc2F)NC(=O)c2ccccc2)CC1,inactive: -16.1%,
Cc1ccc(C(=O)COC(=O)C(C)N2C(=O)C3C4C=CC(C4)C3C2=O)cc1 (stereo unspecified),inactive: 2.25%,
CC(NC(=O)C(=O)N/N=C/c1ccc(Cl)cc1)c1ccccc1 (stereo unspecified),inactive: -5.49%,
Cc1nc2scc(C)n2c(=O)c1S(=O)(=O)NCCc1ccc(Cl)cc1,inactive: -0.879%,
CCN(c1ccccc1)S(=O)(=O)c1ccc(N)c(OC)c1,inactive: 5.39%,

SMILES,growth rescue (activation),Potency
COc1cc(-c2noc(CCCC(=O)Nc3cccnc3)n2)cc(OC)c1OC,inactive: 13.5%,
Cc1nc2cc(CO)ccc2s1,inactive: 3.76%,
COc1ccccc1CC(=O)Nc1ccc(F)cc1F,inactive: 18.4%,
CCN(CC)S(=O)(=O)c1cc(NC(=O)C(C)N2CCc3ccccc32)ccc1C (stereo unspecified),inactive: 13.5%,
CN(C)/C=C(/C(=O)c1ccc(Cl)c(Cl)c1)S(C)(=O)=O,inactive: 13.8%,
COc1ccc(C(=O)Nc2ccccc2)cc1NC(=O)c1cccs1,inactive: 1.52%,
CNC(=O)NC(=O)COc1c(F)c(F)cc(F)c1F,inactive: -25.9%,
CC1(c2ccccc2)NC(=S)N2C1NC(=S)N2c1ccccc1 (stereo unspecified),inactive: -5.16%,
COCc1c(C#N)c(NCc2cc(OC)c(OC)c(OC)c2)nc(C)c1[N+](=O)[O-],inactive: 5.52%,
CC(C)C(=O)NC(=S)Nc1nnn(C)n1,inactive: -8.39%,
COc1ccc(-c2nnc(S/C(=C/c3ccc(Cl)cc3)C(=O)O)o2)cc1,inactive: 3.34%,
Cc1ccc(SCC(=O)n2nc(C)cc2C)cc1,inactive: -13.7%,
CCOC(=O)c1cnc2ccc(OC)cc2c1Nc1ccc(N2CCN(C)CC2)cc1,inactive: 7.88%,
Cc1cc(NC(=O)CCC(=O)N(c2ccc(F)cc2)C(C(=O)NC2CCCC2)c2ccccc2)no1 (stereo unspecified),inactive: 2.63%,
COc1ccc(Nc2nc(-c3ccc(OC)cc3)c(CCC(=O)O)s2)cc1,inactive: 6.5%,
CCCn1c(SCC(=O)N(CC)CC)nnc1-c1ccncc1,inactive: 2.93%,
O=C(CN1CCCC1)OCCCC1CCCCC1,inactive: 2.34%,
O=C(O)CNC(=S)N(Cc1ccccc1)Cc1cccs1,inactive: 2.31%,
COc1cccc(-c2nc(N3CCCC3)c3ccccc3n2)c1O,inactive: 20.3%,
COCCN(C(=O)CCC(=O)Nc1nccs1)C(C(=O)NCCC(C)C)c1ccc(OC)cc1 (stereo unspecified),inactive: 8.35%,
Cc1cc(=O)oc2cc(OCC(=O)Nc3cccc(S(=O)(=O)N(C)C)c3)ccc12,inactive: -19.2%,
Cc1cccc(N2CCN(C(=O)[C@H](C)N3C(=O)C4CC=CCC4C3=O)CC2)c1C (stereo partly specified),inactive: 17.7%,
O=C(NC1CCCCC1)C(c1ccc(O)cc1)N(C(=O)c1cnccn1)c1cccc(F)c1 (stereo unspecified),inactive: 16.3%,

SMILES,growth rescue (activation),Potency
Cc1cc(C)c(C(=O)CC2(O)C(=O)Nc3ccccc32)cc1C (stereo unspecified),inactive: 16.3%,
Cc1ccc(C(=O)NCC(=O)N2CCCCCC2)cc1,inactive: 0.139%,
C=CCNc1nc(N)c(C(=C(C#N)C#N)c2ccc(Br)cc2)s1,inactive: 5.97%,
NS(=O)(=O)c1ccc(CCNC(=O)CSc2nc3ccccc3c(=O)n2CCN2CCOCC2)cc1,inactive: 0.201%,
OCCCNc1ncnc2c1ncn2[C@H]1CN(Cc2ccc3c(c2)OCO3)C[C@@H](CO)O1,inactive: -4.67%,
Nc1ncc2c(n1)CC(c1ccco1)CC2=O (stereo unspecified),inactive: 25.9%,
Cc1ccc(NC(=O)CSc2nc(C)c(C)c(C)n2)c([N+](=O)[O-])c1,inactive: 13.1%,
Cc1ccc(NC(=O)c2cc(NC(=O)c3ccccc3C(=O)O)ccc2N2CCCCC2)cc1,inactive: 7.47%,
Cc1cc([N+](=O)[O-])nn1Cc1ccc(C(=O)N/N=C/c2ccccc2)cc1,inactive: -10.5%,
COc1ccccc1NC(=O)c1ccc(S(=O)(=O)N(C)c2ccccc2)cc1,inactive: -9.18%,
O=C(Nc1ccccc1)N1CCC(O)(c2cccc(C(F)(F)F)c2)CC1,inactive: -5.77%,
CC(=O)c1ccc(S(=O)(=O)Oc2ccc(-c3ccc(C(=O)O)cc3)cc2)cc1,inactive: 1.12%,
CC1(C(=O)NS(=O)(=O)c2ccc(C#N)cc2)CCN1C(=O)Cc1ccccc1Cl (stereo unspecified),inactive: 5.81%,
CCC(=O)NC1(C(F)(F)F)C(=O)Nc2c1c(=O)[nH]c(=O)n2Cc1ccco1 (stereo unspecified),inactive: 6.06%,
O=C(Cc1ccccc1Cl)Nc1cccnc1,inactive: 11.7%,
Cc1nn(C)cc1CN(C)Cc1c(C(=O)N(C)Cc2ccccc2)nc2ccccn12,inactive: -0.631%,
Cc1ccc(Nc2nc3nonc3[nH]c2=O)cc1Cl,inactive: -8.79%,
Cc1ccc2c(c1)c1c3n2CCN(CC#N)C3CCC1 (stereo unspecified),inactive: 4.86%,
S=C(NC1CCCC1)N1CCOCC1,inactive: -3.2%,

# Reference: PubChem BioAssay AID1347073 (National Center for Advancing Translational Sciences (NCATS), 2019)
